Data as given in PubChem BioAssay AID1468 (National Center for Advancing Translational Sciences (NCATS), 2008).
“And” between values parts separate entries of the source, which are not always exact repeats. Equal entries are not always repeated. Among all 280,000 compounds or so, about 1,100 (0.39%) were called active. The shares of active, inactive and inconclusive entries below differ from those in the screen. Calls come from the whole dose curve; as a rule, active = well fitted inhibition curve with a large enough effect; inconclusive = small, poorly fitted or top-dose-only effect, or effect the other way; inactive = flat fitted curve, though single readings scatter. Where the call is inconclusive, the potency comes from a doubtful curve fit.

Molecular target: Microtubule-associated protein tau (Homo sapiens) (UniProt P10636)
Sequence of UniProt P10636 (P10636 whole entry, looked up): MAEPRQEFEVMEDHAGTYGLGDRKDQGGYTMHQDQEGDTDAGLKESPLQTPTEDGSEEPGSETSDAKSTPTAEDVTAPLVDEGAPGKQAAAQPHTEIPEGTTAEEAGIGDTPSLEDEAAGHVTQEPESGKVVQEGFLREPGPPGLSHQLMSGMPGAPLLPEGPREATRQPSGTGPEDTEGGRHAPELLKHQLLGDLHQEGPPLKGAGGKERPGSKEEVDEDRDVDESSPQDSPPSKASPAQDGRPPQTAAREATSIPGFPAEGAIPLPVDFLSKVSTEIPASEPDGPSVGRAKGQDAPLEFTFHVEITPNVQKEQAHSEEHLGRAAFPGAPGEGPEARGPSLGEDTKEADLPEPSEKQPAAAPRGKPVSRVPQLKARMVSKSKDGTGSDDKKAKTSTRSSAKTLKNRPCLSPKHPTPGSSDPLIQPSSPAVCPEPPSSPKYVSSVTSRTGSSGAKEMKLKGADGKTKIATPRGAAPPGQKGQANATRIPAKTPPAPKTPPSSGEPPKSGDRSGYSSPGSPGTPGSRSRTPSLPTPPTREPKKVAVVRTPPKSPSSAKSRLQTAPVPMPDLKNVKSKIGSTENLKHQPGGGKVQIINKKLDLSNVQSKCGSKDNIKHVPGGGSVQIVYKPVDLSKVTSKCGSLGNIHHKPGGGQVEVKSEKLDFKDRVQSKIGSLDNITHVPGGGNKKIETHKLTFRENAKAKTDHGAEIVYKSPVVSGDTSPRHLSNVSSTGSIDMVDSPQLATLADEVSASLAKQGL
Assay: qHTS for Inhibitors of Tau Fibril Formation, Fluorescence Polarization; note: nearly all actives have a fitted effect of over 55% in size
Settings: K18 P301L tau heparin fibrillization, Alexa594 FP, 6 h; series mostly up to 57.7 µM; activity, negative = inhibition: at the top concentration
In short: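 Quantitative HTS format: compounds meet 15 uM recombinant K18 P301L tau and Alexa 594-tau tracer in 100 mM sodium acetate pH 7; 20 uM heparin triggers fibrillization at 37 C over 6 hr; FP gives the signal.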
% is set by controls: 0 for no effect and ±100 for the full control effect; potency is the fitted concentration of half-maximal effect; tags give direction and shape of the fitted curve.

Compound | activity, negative = inhibition | Potency
CC1=C(c2ccc(F)cc2)S(=O)(=O)N=C1N1CCC(C(=O)NCCc2ccco2)CC1 | inactive: -8.89% | –
Cn1c(/C(C#N)=C/Nc2ccccn2)nc2ccccc21 | – | inconclusive: 7.08 µM [inhibitor, single point]
COc1cc(/C=C/C(=O)Nc2ccc(C)cc2)cc(OC)c1OC | inactive: -8.14% | –
COc1ccc(Nc2nc(-c3cccc([N+](=O)[O-])c3)nc3ccccc23)c(OC)c1 | – | inconclusive: 7.08 µM [activator, full curve, poor fit]
Cc1cccc(Cn2c(C)c(C)c3cc(C(=O)NCc4ccco4)ccc32)c1 | – | inconclusive: 44.7 µM [activator, single point]
Cn1c2ccccc2c2cnn(CC(=O)NCc3ccc(Cl)cc3)c(=O)c21 | – | inconclusive: 7.94 µM [inhibitor, partial curve, poor fit]
CS(=O)(=O)N1CCc2cc(S(=O)(=O)NCc3ccccc3Cl)ccc21 | – | inconclusive: 11.2 µM [inhibitor, partial curve]
Cc1nn(C(=O)c2ccccc2)c(C)c1Sc1ccc(Cl)cc1 | inactive: -4.66% | –
CCc1ccc(Nc2n[n+](C)c(-c3ccc(C(=O)O)cc3)s2)cc1 | inactive: -4.48% | –
CCOc1ccc(NC(=O)Cn2c(=O)oc3cc(S(=O)(=O)NC4CCCC4)ccc32)cc1 | inactive: 1.32% | –
N#Cc1nc(COc2ccc(Cl)cc2)oc1N1CCN(Cc2ccccc2)CC1 | inactive: -0.801% | –
CSc1cccc(NC(=O)c2c(Cl)cnn2C)c1 | inactive: 3.29% | –
O=C(CN1CCN(Cc2ccc(F)cc2Cl)S1(=O)=O)Nc1ccc(F)cc1 | inactive: -2.89% | –
C/C(=N\N1C(=O)c2ccccc2NC1c1ccco1)c1ccccc1O (stereo not drawn) | inactive: -5.06% | –
c1csc(-c2nc3ccccn3c2Nc2ccc3c(c2)OCCO3)c1 | – | inconclusive: 8.91 µM [activator, partial curve, poor fit]
Cc1c(C(=O)NCc2ccc(F)cc2)sc2nc(-c3ccccc3)cn12 | – | inconclusive: 28.2 µM [inhibitor, single point]
COc1cc(-c2nc3cccc(C)n3c2Nc2ccc3c(c2)OCCO3)ccc1O | inactive: 3.83% | –
O=C(Nc1cccc(F)c1)c1cccnc1NCCc1ccccc1 | – | active: 17.8 µM
O=C(N=Nc1c(O)n(C2OC(=O)c3ccccc32)c2ccccc12)c1ccc(O)cc1 (stereo not drawn) | – | inconclusive: 1.58 µM [inhibitor, full curve]
O=C(Oc1ccccc1)c1ccc2nsnc2c1 | inactive: -3.25% | –
O=C(CCc1c[nH]c2ccccc12)NCC1COc2ccccc2O1 (stereo not drawn) | – | inconclusive: 17.8 µM [activator, single point]
CCOC(=O)c1cccc(Nc2nc(C(=O)OCC)nc3ccccc23)c1 | – | inconclusive: 10 µM [inhibitor, partial curve]
COCCN(C(=O)Cc1cccs1)C(C(=O)NCc1ccc(OC)cc1)c1ccc(C)cc1 (stereo not drawn) | inactive: 1.95% | –
Cc1ccc(NC(=O)c2cc(-c3cccs3)on2)cc1C | – | inconclusive: 7.94 µM [inhibitor, partial curve]
O=C(CCN1C(=O)c2ccccc2S1(=O)=O)Nc1ccccc1 | inactive: 6.62% | –

Compound | activity, negative = inhibition | Potency
CCOC(=O)c1cccc(NC(=O)c2cc3c(=O)n(Cc4cccnc4)ccc3nc2C)c1 | inactive: -4.57% | –
Cc1cccc(CSC(Nc2ccc(F)cc2)=C(C#N)C#N)c1 | – | inconclusive: 31.6 µM [inhibitor, single point]
O=C(NCc1ccco1)c1cc(-c2ccccc2)on1 | inactive: 3.49% | –
Cc1cc(/C=C2\SC(=S)NC2=O)c(C)n1-c1ccccc1 | – | inconclusive: 3.16 µM [activator, single point]
Cc1ccc(NC(=O)Cn2cc(C(=O)c3cccs3)c3ccccc32)cc1C | – | inconclusive: 31.6 µM [inhibitor, partial curve]
CC(=O)C1=C(C)OC(N)=C(C#N)C1c1cccc2ccccc12 (stereo not drawn) | – | inconclusive: 39.8 µM [inhibitor, single point]
O=C(O)Cc1cn(Cc2ccc(F)cc2)c2ccccc12 | inactive: 3.71% | –
COC(=O)c1c(NC(=O)C2SC(=NC3CCCCC3)C(C(N)=O)=C2N)sc2c1CCCC2 (stereo not drawn) | – | inconclusive: 2.82 µM [activator, single point]
Cc1ccc(Nc2cc(C)nc(-c3ccccc3O)n2)cc1 | – | inconclusive: 35.5 µM [inhibitor, single point]
CC(C)(C)c1ccc2c(c1)C(=O)c1ccccc1C2=O | inactive: 6.12% | –
O=C1C2=C(c3ccccc31)[N+](=O)[C@@H]1CCCC[C@@H]1N2[O-] | – | inconclusive: 7.08 µM [inhibitor, partial curve, poor fit]
O=C(N/N=C/c1cccs1)c1ccc(-n2cccc2)cc1 | – | inconclusive: 3.55 µM [inhibitor, single point]
COc1cc(NS(=O)(=O)c2cc3c(cc2C)n(C)c(=O)c(=O)n3C)cc(OC)c1 | inactive: -0.0631% | –
CC1CCN(CC(CS(=O)(=O)c2ccc([N+](=O)[O-])cc2)N2CCC(C)CC2)CC1 (stereo not drawn) | – | inconclusive: 28.2 µM [inhibitor, partial curve]
Cc1nc2c(C(=O)NCCc3ccccc3)c[nH]n2c(=O)c1Cc1ccccc1F | inactive: 3.33% | –
COc1cccc(C(=O)Nc2ccc(C(=O)OCc3cc(=O)n4cc(C)sc4n3)cc2)c1 | inactive: -15.4% | –
CCCCCC(=O)/C=C/[C@H]1[C@H](O)CC(=O)[C@@H]1C/C=C\CCCC(=O)O | inactive: -5.92% | –
N#CC1=C(N)OC2=C(CC/C2=C\c2ccccc2Cl)C1c1ccccc1Cl (stereo not drawn) | inactive: 1.91% | –
CCOc1ccc2nc(NC(=O)Nc3cccs3)sc2c1 | – | inconclusive: 5.62 µM [activator, single point]
O=c1[nH]c2ccc(Cl)cc2c(-c2ccccc2)c1SC(=S)N1CCCCC1 | inactive: -1.17% | –
COc1ccccc1NS(=O)(=O)c1cc(NC(=O)Nc2ccc(Cl)cc2Cl)ccc1N1CCCCC1 | – | inconclusive: 28.2 µM [inhibitor, single point]
CC(C)C[C@@H](N)C(=O)O | inactive: 2% | –
CCCCOC(=O)c1ccc(NC(=O)c2cc(=O)c3ccccc3o2)cc1 | – | inconclusive: 6.31 µM [inhibitor, partial curve]
O=C1CCC[C@@H](C2=CCCCC2=O)C1 | – | inconclusive: 8.91 µM [inhibitor, single point]
CCc1ccc(C(=O)c2cn(CC(=O)Nc3ccc(OC)cc3)c3cc4c(cc3c2=O)OCCO4)cc1 | – | inconclusive: 10 µM [inhibitor, partial curve]

Compound | activity, negative = inhibition | Potency
O=C(Nc1ccc(OC(F)(F)F)cc1)C(NS(=O)(=O)c1cccc2nsnc12)c1ccccc1 (stereo not drawn) | – | inconclusive: 28.2 µM [inhibitor, partial curve]
CC1=C(C(=O)Nc2ccccc2)C(c2ccco2)C(C#N)=C(SCC(=O)OC(C)C)N1 (stereo not drawn) | inactive: 1.85% | –
COc1ccc(C(=O)Nc2ccc3nc(N4CCCCC4)cc(C)c3c2)cc1OC | – | inconclusive: 14.1 µM [activator, partial curve] and inconclusive: 8.91 µM [activator, single point]
COC(=O)c1sc(NC(=O)c2csc3c2CCCC3)nc1C | – | inconclusive: 35.5 µM [inhibitor, single point]
CC(C)(C)OC(=O)NCCCCC1=CC2=CC(=O)C(C)(OC(=O)c3ccco3)C(=O)C2=CO1 (stereo not drawn) | – | inconclusive: 7.94 µM [inhibitor, partial curve, poor fit]
CC1=C/C(=N\OS(=O)(=O)c2ccccc2)C=CC1=O | – | active: 12.6 µM
Cc1cc(Br)ccc1-n1[nH]c(C)c(C=Nc2cccc3nsnc23)c1=O | – | inconclusive: 28.2 µM [inhibitor, partial curve, poor fit]
CCc1ccc2c(c1)c(=O)c(C(=O)c1ccc(C)cc1)cn2CC(=O)Nc1ccccc1C | – | inconclusive: 25.1 µM [inhibitor, single point]
COc1ccc2nc3cc(Cl)ccc3c(Nc3cc(C(C)C)c(O)cc3C)c2c1 | – | inconclusive: 39.8 µM [inhibitor, single point]
CN1CCC(N(C)CC(=O)Nc2ccc3c(c2)OC(F)(F)O3)CC1 | inactive: -4.28% | –
COC(=O)C(Cc1ccccc1)NC(=O)c1ccc(C)cc1 (stereo not drawn) | inactive: -7.7% | –
Cc1cccc(-n2nnnc2SCC(=O)NCCN2C(=O)CSC2=O)c1 | inactive: -0.634% | –
Cc1cccc(C)c1OCC(=O)Nc1c(C(=O)c2ccccc2)oc2ccccc12 | – | inconclusive: 14.1 µM [inhibitor, partial curve]
CCCOc1c(Br)cc(C(N)=O)cc1OCC | inactive: -8.52% | –
C#CC(N)CCC(=O)O (stereo not drawn) | – | inconclusive: 44.7 µM [inhibitor, single point]
Cc1ccccc1CN1c2ccccc2-c2nc(SCC(=O)Nc3cc(F)ccc3F)ncc2S1(=O)=O | – | inconclusive: 12.6 µM [inhibitor, partial curve]
Cc1ccc(Cl)cc1NC(=O)c1cc(-c2ccc3c(c2)OCCO3)on1 | – | inconclusive: 20 µM [inhibitor, partial curve]
CC(=O)c1ccc(NC(=S)NCCc2cccc(Cl)c2)cc1 | – | active: 25.1 µM
COc1ccc(/C=C2\CCCc3c2nc2ccccc2c3C(=O)OCC(=O)c2c(N)n(C)c(=O)n(C)c2=O)cc1 | – | inconclusive: 15.8 µM [inhibitor, partial curve]
CCOC(=O)C1CCCN(Cc2c(C(=O)N3CCCCC3)nc3c(C)cccn23)C1 (stereo not drawn) | inactive: -2.32% | –
Nc1cc([N+](=O)[O-])ccc1Nc1ccc(O)cc1 | – | inconclusive: 20 µM [inhibitor, single point]
CN(C)c1ccc(-c2nc(Nc3ccncc3)c3ccccc3n2)cc1 | – | inconclusive: 39.8 µM [inhibitor, single point]
C=CCn1c(N)c(C(=O)Nc2ccccc2)c2nc3ccccc3nc21 | – | inconclusive: 4.47 µM [inhibitor, partial curve]
